# Source: the BET-seq Pho4 binding data (Le et al. 2018)
# The list shows a part of the results. The energies were worked out here from pooled read counts, against the library average; single values are noisy.
# Target: T1, Pho4 (S. cerevisiae) (UniProt P07270)
# T1 sequence: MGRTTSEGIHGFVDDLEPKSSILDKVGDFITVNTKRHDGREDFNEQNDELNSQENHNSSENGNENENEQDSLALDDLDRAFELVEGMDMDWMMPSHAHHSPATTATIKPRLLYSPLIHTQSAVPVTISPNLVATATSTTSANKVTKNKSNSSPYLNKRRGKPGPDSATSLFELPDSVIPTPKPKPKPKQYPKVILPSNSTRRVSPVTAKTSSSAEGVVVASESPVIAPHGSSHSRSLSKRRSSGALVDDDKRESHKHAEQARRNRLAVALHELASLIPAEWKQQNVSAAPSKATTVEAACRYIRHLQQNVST
# Assay: relative binding free energy (BET-seq); higher = weaker binding
# Conditions: reference: library average
row,Sequence,relative binding free energy [kcal/mol]
1,GTGAACACGTGGGAAG,-0.09
2,GTTGTCACGTGTTGGT,0.15
3,TGGGCCACGTGGTAAA,-0.02
4,CGTTGCACGTGGTTAT,-0.01
5,GTAGTCACGTGGGAGC,0.04
6,AACATCACGTGTGTGT,0.18
7,AGGGCCACGTGCGGTT,-0.13
8,TGTCGCACGTGATGGG,0.06
9,GGTGGCACGTGGGCTT,-0.11
10,GGGCACACGTGTGTTA,-0.02
11,TCGGCCACGTGTGGTT,0.01
12,AGGTTCACGTGTGTAG,0.2
13,GGAATCACGTGTTAGC,0.31
14,GGAGGCACGTGACTTG,0.12
15,TCTAGCACGTGTGGAT,0.01
16,TTATTCACGTGTGTAT,0.23
17,ATGATCACGTGATTTA,0.08
18,GCGTGCACGTGGAGGG,-0.1
19,CTTTGCACGTGCATGT,0.05
20,TTTTCCACGTGCAGGG,0.04
21,TTGATCACGTGGTTCA,0.18
22,TATGACACGTGCGTTA,-0.12
23,GTTCTCACGTGTCGGT,0.43
24,AGTGGCACGTGGGCTT,-0.27
25,GCCAGCACGTGTGTGG,-0.06

row,Sequence,relative binding free energy [kcal/mol]
1,GTGGTCACGTGAGTAG,0.2
2,TTTTGCACGTGTGGAT,0.07
3,TGAGGCACGTGTTCGC,0.11
4,TGGTCCACGTGAGGTA,0.1
5,TTGTTCACGTGATCAG,0.28
6,TAAGGCACGTGAATTG,0.18
7,GTGTTCACGTGGGCGG,0.2
8,AGTCTCACGTGACGGT,0.38
9,TGTAGCACGTGTCGTA,-0.09
10,TGGGGCACGTGTCATA,-0.23
11,CTCGACACGTGGGGGT,-0.13
12,ATCTACACGTGGGCGG,0.06
13,GCGGTCACGTGTTATA,0.21
14,GTAATCACGTGTCGGG,0.25
15,TATTTCACGTGTCAAG,0.23
16,ATGGACACGTGCGTAT,0.04
17,GGGAACACGTGGTAGG,-0.08
18,GTCTGCACGTGTGTAG,0.02
19,TTATGCACGTGAGAGA,0.17
20,AGTAACACGTGTTTTA,-0.13
21,CGTTACACGTGTGTAT,0.1
22,TAATACACGTGTTATT,-0.11
23,TATCACACGTGGGTTG,-0.12
24,TATCTCACGTGGCGGT,0.23
25,AAGGACACGTGGGCTT,-0.01

row,Sequence,relative binding free energy [kcal/mol]
1,ATAGGCACGTGGTGAA,-0.13
2,TACATCACGTGTGGGA,0.31
3,TTTGACACGTGGTCGA,0.05
4,GGGGGCACGTGTGATA,0.12
5,GCGAGCACGTGGAGAT,0.06
6,TGTTCCACGTGGCGGA,-0.01
7,TTAGCCACGTGGGTGG,-0.22
8,TATGCCACGTGATTGG,0.06
9,CAGAGCACGTGGTGTT,-0.11
10,GTGGTCACGTGACCGG,0.15
11,TGATGCACGTGGTACT,-0.13
12,TCTGTCACGTGGCTGG,0.06
13,GGCTGCACGTGTCGTG,-0.03
14,AGTGGCACGTGGGTCC,-0.23
15,TTCGGCACGTGTCTTG,-0.09
16,AATGTCACGTGTTTGA,0.1
17,TTGCTCACGTGAAATG,0.51
18,CTGTGCACGTGCTGTT,-0.09
19,TCGTCCACGTGTTGGG,-0.02
20,ATGTACACGTGTATGT,-0.06
21,GTTTACACGTGATTCG,0.29
22,GAGGTCACGTGGGCGA,0.08
23,TACTGCACGTGGTAAG,-0.03
24,GGGGGCACGTGTGTGA,-0.07
25,GTGGCCACGTGATAGG,0.26

row,Sequence,relative binding free energy [kcal/mol]
1,GTCTGCACGTGAGTTT,0.3
2,GAATGCACGTGAAGTG,0.25
3,TTGGGCACGTGTCTGG,0.03
4,GTAGGCACGTGCAGTG,-0.11
5,CGAGGCACGTGGTGCG,-0.24
6,GGTGACACGTGGTAGA,-0.06
7,TTCTGCACGTGGATAT,0.07
8,TTTTTCACGTGTCAGT,0.29
9,ACTGGCACGTGCTGGT,-0.24
10,GCATACACGTGGTGGG,-0.04
11,TCTCTCACGTGGTGTT,0.21
12,ATGAACACGTGATGTG,0.14
13,GCGTGCACGTGCGGGT,-0.01
14,ATAGTCACGTGTCTTA,0.11
15,GTTCGCACGTGGTGCA,-0.06
16,ATTGGCACGTGTCGAT,-0.14
17,TGTGGCACGTGTTAAT,-0.02
18,AGAGTCACGTGGTTTC,0.13
19,GGAGTCACGTGAAGGC,0.46
20,GACGTCACGTGCTGGT,0.05
21,TGGGCCACGTGGTTAA,-0.03
22,AATTACACGTGCTGTG,0.02
23,TTATGCACGTGGATGA,-0.06
24,ATTTTCACGTGAATTG,0.33
25,CTTGGCACGTGAGTTT,0.07

row,Sequence,relative binding free energy [kcal/mol]
1,TGCATCACGTGGGTAT,0
2,TCAGCCACGTGGGGGT,-0.27
3,AGAGTCACGTGTGAAT,0.22
4,ACGGTCACGTGGGGGG,-0.19
5,GGATTCACGTGTTAAG,0.42
6,GAGTTCACGTGGGAGA,0.25
7,CTGATCACGTGTTAAG,0.21
8,TAGTGCACGTGCATAT,0
9,GGTCGCACGTGTGGCT,0.02
10,TGGACCACGTGTGAGT,0.05
11,GTGACCACGTGTGGGT,0.06
12,GATGCCACGTGTCGTG,0.1
13,TAGGACACGTGTTAGT,0.04
14,TCAGGCACGTGTGTTC,-0.02
15,TGGGCCACGTGGTGGA,-0.16
16,GTGAACACGTGGCTGT,-0.05
17,TAATTCACGTGTGATT,0.38
18,GGTCGCACGTGAAGTG,0.27
19,AGGTGCACGTGTATGT,-0.04
20,CTGCGCACGTGGTTAG,-0.18
21,TAGGTCACGTGTCCGG,0.01
22,GGCAGCACGTGAGTGA,0.22
23,AACAGCACGTGAGGGG,0.11
24,TGGTGCACGTGCTAGA,-0.03
25,GGGAGCACGTGAATAG,0.3

row,Sequence,relative binding free energy [kcal/mol]
1,TTACTCACGTGGTATA,0.14
2,TAGGTCACGTGCTGTA,0.04
3,GTGAGCACGTGTTAGG,-0.08
4,GCGGTCACGTGGGGGG,0.03
5,TTGTCCACGTGATGGG,0.31
6,CGGTTCACGTGTATAA,0.3
7,TTGTACACGTGGGTGA,0.03
8,GTTTACACGTGGCGTC,0.19
9,TATTTCACGTGTGTAG,0.32
10,GAGTTCACGTGAGCGC,0.78
11,TGACACACGTGGGGGA,-0.22
12,AAGGGCACGTGGGCAT,-0.32
13,GTGATCACGTGTTGCG,0.12
14,ATATTCACGTGCAGGT,0.17
15,GTGCACACGTGAGTTT,0.29
16,TTGGGCACGTGGGGAT,-0.19
17,TAGTTCACGTGATCTT,0.34
18,AGGTGCACGTGCCGTG,-0.18
19,AATATCACGTGGGGAG,0.05
20,CGAAGCACGTGTTTGT,-0.1
21,TTTAGCACGTGTGCAA,-0.08
